Assay results published in PMC12136788.
The other results are listed elsewhere or left out.

T1: UNK ZnF1-3 (human, UniProt Q9C0B0 31-174)
T1 sequence: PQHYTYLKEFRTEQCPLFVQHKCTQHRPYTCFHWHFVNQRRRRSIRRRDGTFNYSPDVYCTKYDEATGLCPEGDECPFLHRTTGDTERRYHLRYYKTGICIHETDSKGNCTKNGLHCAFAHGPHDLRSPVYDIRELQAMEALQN

B1: chr11:100452292:100452293:-_ENSMUSG00000014195_ENSMUST00000014339|perfect_dup|FALSE|FALSE (ssRNA)
RNA: GGGAGUUCUACAGUCCGACGAUCAUUUGUUUUUAUGUUGUUGGGAUCUAUCCCCAAGGCUUCUGUGUACAGUUCAUAUGCUAGCUUGUAAUUUCCUUCCUUAAAGGCUUUAUUCCCAUCUUCCUUCUUGGCUUUAAGGGCUUUCAACAGAGGAUUGAGCAUCA
B2: chr16:94664741:94664742:+_ENSMUSG00000040785_ENSMUST00000117648|mus_hu|mus_mus_mus_hu_False|58_68 (ssRNA)
RNA: GGGAGUUCUACAGUCCGACGAUCUGGUACUGAUCUUGGUAGCUGAUAUUCAGGAGAAAGGCUGGCCAAAGGUGUGUAAAUGCUAGUGUACUGGGGCAAACCUGGUAACACGUUUAUGUAUGCUGGCGGUGUCUGGGUGAUAUCCAACAGAGGAUUGAGCAUCA
B3: 89898744_89908832_476_3pUTR_ENSMUSG00000002489_ENSMUST00000163370|mouse|control|control (ssRNA)
RNA: GGGAGUUCUACAGUCCGACGAUCCGCCCCAGGCUGGCAUGCUUUUCUCCAUAAAACUCGUGGUCUACAUUUUGGCUUUCUGCGUUUCCCAUGGUUUUAUGGUCUUCAAAGGCAACAGUGGUGCCCAGCCCAACUGGCCCCAGGCAACAGAGGAUUGAGCAUCA
B4: chr4:6323411:6323412:-_ENSMUSG00000028245_ENSMUST00000029910|mus_hu|motif|central (ssRNA)
RNA: GGGAGUUCUACAGUCCGACGAUCAGAAAAAUAUUUUUAAUGUAGAAAAGAUGAAUAGCUGUAAUGAAAUACAAACCGUUCCGGUACACAGUAAACUUACUAAGAACUGCUAAUCCUUCUCCAGGUUCUUAGAAUCUGGGUACACAACAGAGGAUUGAGCAUCA
B5: chrX:45560084:45560085:-_ENSMUSG00000036985_ENSMUST00000037960|mus_hu|FALSE|FALSE (ssRNA)
RNA: GGGAGUUCUACAGUCCGACGAUCGCGAUUACACGAGAGAAGAAACAGAGGCUGAGCCCAGCUUUGAAAUCACGUUGCCUGCUAUUCCUGCCGCUGGGUCAAACAUCAUCAAAAGUCCAAUUGCUAGCCCUGGAAGACAAUCUCCAACAGAGGAUUGAGCAUCA
B6: chr15:43486971:43486972:+_ENSG00000166946_ENST00000300213|hu_hu|FALSE|FALSE (ssRNA)
RNA: GGGAGUUCUACAGUCCGACGAUCGAGCUCCUUGAUUCUAUUCAUGCAAUGAUCAAUGGCAUUAAUAAGUAAAGGGAUCCAACUAUCUUCUGGCUGAGGGGUCACAUGACUUGCUUUUGUAAUUUCAAGUGCCUUCUUUAAAACCAACAGAGGAUUGAGCAUCA
B7: chr6:124691279:124691280:-_ENSMUSG00000072772_ENSMUST00000004389|mus_mus|motif|central (ssRNA)
RNA: GGGAGUUCUACAGUCCGACGAUCCAGUGAAAUUGGGAGGGGUUUUCCGACCGAAGUCAGAAAACCUGCUAGACAAAUUCGGAAAGAGCUGUAACACUUGCGGAAGUGCGUCUGUAGCGAGCCAGGGAAGGACAUCAACUCCACCAACAGAGGAUUGAGCAUCA
B8: chr8:104447970:104447971:+_ENSG00000164934_ENST00000297579|hu_hu|hu_hu_hu_mus_False|1_58 (ssRNA)
RNA: GGGAGUUCUACAGUCCGACGAUCAUACACUUCCCUGCUUCGGCUCUUGUCCACAGGAAAGAUUCUAAUAGACUUAUCGAAACUAGCAGACACAAAUUCCUUCCCAGUGGGAGAGUAGUCCACAUCAAGUACUGCAGAUACAUGCAACAGAGGAUUGAGCAUCA
B9: chr14:45963330:45963331:+_ENSMUSG00000021832_ENSMUST00000022380|perfect_dup|motif|central (ssRNA)
RNA: GGGAGUUCUACAGUCCGACGAUCGAUUUUCAAUAUAUCUAAUCUUGCUUGUUCAUUUGGUAAAUCGAUAUGUAUUUUUCGGUCGGAUCUUCCUGGGCGCAGCAAAGCAGGAUCCAGUGUAUCUGGUCUGUUUGUAGCCAUGAUCAACAGAGGAUUGAGCAUCA
B10: chr10:126679069:126679070:-_ENSMUSG00000074657_ENSMUST00000099172|mus_hu|FALSE|FALSE (ssRNA)
RNA: GGGAGUUCUACAGUCCGACGAUCGCGGAUCUCCUCCUCGUAUUUCUGCCGCUCCUCGGGCGCGAUGCGCACCACGAUGGAUGAGUUGUCAUUCACAGGGGUCUCCUCACAGAGCUCGGCUCCCAGGGCUGCCUCCUCCCCAGCCAACAGAGGAUUGAGCAUCA
B11: chr16:94690093:94690094:+_ENSMUSG00000040785_ENSMUST00000117648|mus_hu|mus_mus_mus_hu_True|58_58 (ssRNA)
RNA: GGGAGUUCUACAGUCCGACGAUCGGGCUGGGAUGACGGACACACAGCCUCGAUUCCAGGGGGAAAAAGUCUUAGUCAAUACUAAUUAAAAAGUGUUAAUGAUUUUUGAAAAUCAGAUUACAUCUAUAAAAGAUGAAAAGCAAACAACAGAGGAUUGAGCAUCA
B12: chr6:29325759:29325760:+_ENSMUSG00000029767_ENSMUST00000031779|mus_mus|FALSE|FALSE (ssRNA)
RNA: GGGAGUUCUACAGUCCGACGAUCAGAUGAGAAAACGGCUCAAGUGGUCCUCAAACCAAGAGCCCCCUCUGUACAUCCUUCUAUCCUUGAGGCAAAGCUCAAGCCCUGGUGAGCAGAGGCCUGGGAGAAGAGUGGUUUGCCUUCCAACAGAGGAUUGAGCAUCA
B13: chr5:134235298:134235299:+_ENSG00000113621_ENST00000507024|hu_mus|motif|central (ssRNA)
RNA: GGGAGUUCUACAGUCCGACGAUCUUGUCCUGGAAUCAGCCACCGAAUACUCUCAGUGCGGAUGGUAGCAUACAUAAUGAAACGGAUUAAAAAGAACAAGGAAAACACCAGCAACCAAUCCACAGUCUUUAUCAAAGUGCUGGGCAACAGAGGAUUGAGCAUCA
B14: chr22:32879901:32879902:+_ENSG00000100225_ENST00000397426|hu_mus|hu_hu_hu_mus_False|1_38 (ssRNA)
RNA: GGGAGUUCUACAGUCCGACGAUCCUCUUCCAUACUCAUGGCAUCCUGAAUUGACUCAGCUUCAACAUUUUGACUAGGCCCUUCCAUACUGUCAUCAUUCCAAACACCAAAUGGGGUGGCCUGUCCUUGGGAUGAAUCACUUGGCAACAGAGGAUUGAGCAUCA
B15: chr14:89307221:89307222:+_ENSG00000165533_ENST00000346301|hu_mus|hu_hu_hu_mus_False|18_58 (ssRNA)
RNA: GGGAGUUCUACAGUCCGACGAUCUCCUGUUUGGUUAGUGCCAGGGAGCUUCAAAGAUGUGCCAGGGCGUGGGACCUGAGCUAUAGCAUUUUCAUCCAGGAUCAUUUCAGCAAUUCCUUCCUGAUCUACAUCAAUUUCAUCUAUCAACAGAGGAUUGAGCAUCA
B16: chr2:61749799:61749800:-_ENSG00000082898_ENST00000401558|hu_mus|FALSE|FALSE (ssRNA)
RNA: GGGAGUUCUACAGUCCGACGAUCUCCUUCACACUGGUUCCUUGGAAGGAUCUUCCACCUUGUUUUGAUCACAUUUUCCAAAAUCUGUAGUCCAUAGUAUUUCGUGUUCAUGUUCUGCGAAAACUCCAAUAUUGUGUCGACCCGCAACAGAGGAUUGAGCAUCA
B17: chr4:76733432:76733433:+_ENSG00000138768_ENST00000264904|hu_mus|FALSE|FALSE (ssRNA)
RNA: GGGAGUUCUACAGUCCGACGAUCUGCUAACAGCACCAAAAGGUCAUCUUGUUCUUUCUUAGAAUCCGUAACUUCCAAGUCCAGCUUGUCUUUCUCGGUUUGCAGGAUGGCGAUGGUGCUAUUGGAUGAGUCCAGCUGCUUUUGCAACAGAGGAUUGAGCAUCA
B18: chr4:57314706:57314707:+_ENSG00000128050_ENST00000264221|hu_mus|hu_hu_hu_mus_True|38_78 (ssRNA)
RNA: GGGAGUUCUACAGUCCGACGAUCCAGAAUUUCAAAAAUAGCUUGUGUGGCAUGACUCAUGAUAUCCACUUCAGUCUGCCCUAUAACAAGGCCAGCAAAGCAAAAUUUUGCAGCAAUGAGUUGCUCCUCAGACCACUGUGGAUCCAACAGAGGAUUGAGCAUCA
B19: chr3:9412954:9412955:+_ENSG00000134077_ENST00000452837|hu_mus|hu_hu_hu_mus_False|28_48 (ssRNA)
RNA: GGGAGUUCUACAGUCCGACGAUCGGUUGAUAUCUCUUCUUUGAUGGCUGGAUUUUCAUAAUAGUCCAAGAUAUGUGAAUCUGAAGUAUGGCUAGUGUGCUUUUUCUUAACAUUUCUCUCAUCUGCUUUGUCUCCUUGUCCACACAACAGAGGAUUGAGCAUCA
B20: chr11:69638232:69638233:-_ENSMUSG00000051790_ENSMUST00000056484|mus_mus|FALSE|FALSE (ssRNA)
RNA: GGGAGUUCUACAGUCCGACGAUCUCUCCAGGGAGUUGGACGGGGAGGAGAAGACGAAGGCAUGGGAUACAAAUCCCCGCAGAAAUUCUUGGAGGAGGCAAACAUGUGUCCAGGGCGGCAAAACAAACAAACAAACAAACAACCCAACAGAGGAUUGAGCAUCA
B21: chr3:150289932:150289933:+_ENSG00000144895_ENST00000460851|hu_hu|hu_hu_hu_mus_False|18_58 (ssRNA)
RNA: GGGAGUUCUACAGUCCGACGAUCCUUGUAGUUUUUAACAUCCCAUACUUCCAUUUGUCCUCGAAGAUUUCCAAAUCCAGCUAAUACUAAUAUAUGUCCAUGAGGGCUAUAGAAGGCUGCAUUACGAGGACCAGUCCCAAAGUCCAACAGAGGAUUGAGCAUCA
B22: chr14:78183846:78183847:+_ENSG00000119705_ENST00000557342|hu_hu|hu_hu_hu_mus_False|1_48 (ssRNA)
RNA: GGGAGUUCUACAGUCCGACGAUCUCUCAGAAAUCUUUCUUCAUCAGAUGUUUGAGCUCCGUGCAAAGCCUUUGCUCUUUGAGCUUGAACCUGGACCUAUGGGAGGGAAAGCACUGUCAGAAAAGGUAAUUUUUUUUUCCGAAGCAACAGAGGAUUGAGCAUCA

molecular target: T1, UNK ZnF1-3; assay: nsRBNS (natural sequence RNA bind-n-seq); RBNS binding buffer (assumed for nsRBNS): 25 mM Tris pH 7.5, 150 mM KCl, 3 mM MgCl2, 0.01% Triton X-100, 500 ug/ml BSA, 20 U/ml SUPERase-In, 4 C; UNK is unkempt and MSI1 is Musashi-1; names of the RNAs are library labels; protein concentration not given here; high values mean tight binding

Row | Binder | binding signal [enrichment R]
1 | B1 | 0.338
2 | B2 | 0.969
3 | B3 | 0.649
4 | B4 | 1.36
5 | B5 | 1.97
6 | B6 | 1.44
7 | B7 | 1.8
8 | B8 | 0.841
9 | B9 | 0.374
10 | B10 | 1.56
11 | B11 | 0.917
12 | B12 | 0.768
13 | B13 | 1.37
14 | B14 | 0.945
15 | B15 | 0.883
16 | B16 | 0.546
17 | B17 | 0.313
18 | B18 | 1.04
19 | B19 | 0.329
20 | B20 | 2.33
21 | B21 | 1.35
22 | B22 | 1.18
